PubChem BioAssay AID720709 (National Center for Advancing Translational Sciences (NCATS), 2013)
Among all 360,000 compounds or so, about 520 (0.14%) were called active. The inconclusive results got no clear call from the source; some entries with a clear call stand among them for comparison. The call rests on the fitted dose curve; in most records, active means well fitted inhibition curve with a large enough effect; inconclusive means small, poorly fitted or top-dose-only effect; inactive means no such curve, though single readings can be large or run the other way. No potency is given beside an inconclusive call; the fits are too rough.

Target: Rap guanine nucleotide exchange factor 3 (Homo sapiens) (UniProt O95398)
Sequence of UniProt O95398 (O95398 whole entry, looked up): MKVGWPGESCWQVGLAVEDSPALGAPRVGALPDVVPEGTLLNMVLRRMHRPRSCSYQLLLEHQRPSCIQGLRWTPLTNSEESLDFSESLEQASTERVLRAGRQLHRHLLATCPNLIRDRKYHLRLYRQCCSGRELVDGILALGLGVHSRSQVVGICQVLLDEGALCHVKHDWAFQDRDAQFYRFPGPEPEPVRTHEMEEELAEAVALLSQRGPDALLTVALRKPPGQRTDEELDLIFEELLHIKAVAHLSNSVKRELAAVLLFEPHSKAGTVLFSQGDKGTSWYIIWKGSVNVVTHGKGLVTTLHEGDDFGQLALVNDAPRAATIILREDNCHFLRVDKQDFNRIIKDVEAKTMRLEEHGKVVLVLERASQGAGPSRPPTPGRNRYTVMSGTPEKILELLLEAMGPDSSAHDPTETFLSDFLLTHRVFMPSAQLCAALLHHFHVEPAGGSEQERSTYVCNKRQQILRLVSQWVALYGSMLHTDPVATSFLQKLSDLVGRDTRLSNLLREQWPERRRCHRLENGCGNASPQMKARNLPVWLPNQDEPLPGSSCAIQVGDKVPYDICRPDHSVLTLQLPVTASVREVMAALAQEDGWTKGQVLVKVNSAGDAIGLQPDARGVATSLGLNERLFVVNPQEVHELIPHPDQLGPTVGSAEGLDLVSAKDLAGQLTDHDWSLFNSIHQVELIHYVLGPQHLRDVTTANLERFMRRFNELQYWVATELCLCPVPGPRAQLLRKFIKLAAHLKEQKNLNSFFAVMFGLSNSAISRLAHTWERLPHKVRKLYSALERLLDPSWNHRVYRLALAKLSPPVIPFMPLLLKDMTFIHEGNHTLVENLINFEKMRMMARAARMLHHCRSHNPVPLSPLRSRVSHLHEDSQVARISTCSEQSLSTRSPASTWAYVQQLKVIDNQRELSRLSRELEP
Test: qHTS for Antagonist of cAMP-regulated guanine nucleotide exchange factor 3 (EPAC1): primary screen; further: nearly all actives have a fitted effect of over 50% in size;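 on activity change, negative = inhibition: plate controls were vehicle for no effect and positive control for full effect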
Conditions: EPAC1 GEF assay, Rap1b-BODIPY-GDP exchange fluorescence; activity change, negative = inhibition: at 115 µM (top of the series)
Potency means the concentration at half of the fitted maximal effect; tags describe the fitted curve by direction and shape.

Row | Compound | Potency | activity change, negative = inhibition
1 | CCN1CCCC1CNC(=O)c1cc2c(C)nc3ccccc3c2o1 (stereo not drawn) | inconclusive [inhibitor, partial curve] | –
2 | Cc1ccc2[nH]c(=O)c(CN(Cc3ccc4c(c3)OCO4)Cc3nnnn3C3CCCC3)cc2c1 | – | inactive: -11.8%
3 | O=C(O)C1CSC(c2ccco2)N1 (stereo not drawn) | inconclusive [inhibitor, partial curve] | –
4 | COc1ccc(/C=N/NC(=O)c2nnn(-c3nonc3N)c2-c2cccs2)cc1OC | inconclusive [inhibitor, full curve] | –
5 | CCn1c(=O)c(C(=O)NC(C)c2ccccc2)c(O)c2ccccc21 (stereo not drawn) | inconclusive [inhibitor, partial curve, poor fit] | –
6 | COC(=O)CCC(=O)Nc1ccc(S(=O)(=O)N2CCc3ccccc32)cc1 | inconclusive [inhibitor, full curve, poor fit] | –
7 | O=C(CSc1nnc(CNC(=O)c2ccccc2)o1)NCC1CCCO1 (stereo not drawn) | – | inactive: 19.2%
8 | CCN(Cc1ccccc1)CC(O)COC(c1ccc(OC)cc1)c1ccc(OC)cc1 (stereo not drawn) | inconclusive [inhibitor, partial curve] | –
9 | COc1ccc(Cn2cc3c(-c4ccc(F)cc4)nnc-3c3cc(OC)c(OC)cc32)cc1 | – | inconclusive: -14.3% [inhibitor]
10 | S=C(Nc1ccc(Cl)cc1)N(CCCN1CCOCC1)Cc1ccco1 | inconclusive [inhibitor, partial curve, poor fit] | –
11 | CC(=O)C1C(c2ccc(Cl)cc2)NC(=O)NC1(O)C(F)(F)F (stereo not drawn) | inconclusive [inhibitor, single point] | –
12 | COc1ccc(N2CCN(S(=O)(=O)c3c(C)n(C)c(=O)n(C)c3=O)CC2)cc1 | – | inactive: 7.99%
13 | COc1cc(OC)c(NC(=O)c2ccc3c(SCC(=O)O)c4c(nc3c2)CCCC4)cc1Cl | inconclusive [inhibitor, single point] | –
14 | O=C(COc1ccccc1)NCC(=O)N/N=C/c1ccc(O)cc1O | inconclusive [inhibitor, partial curve] | –
15 | COc1ccccc1N1CCN(c2ccc3c(c2)S(=O)(=O)c2cccc(C(=O)NCC4CC4)c2C3=O)CC1 | active: 22.4 µM | –
16 | Cc1cc(C)cc(NC(=O)CC23CC4CC(C2)CC(n2nnc(C)n2)(C4)C3)c1 | inconclusive [inhibitor, full curve] | –
17 | Nc1c(C(=O)NCc2ccccc2)nnn1Cc1ccc(F)cc1 | inconclusive [inhibitor, full curve, poor fit] | –
18 | COc1ccc(CN2CCNC(=O)C2CC(=O)N(C)Cc2ccccn2)cc1OC (stereo not drawn) | inconclusive [inhibitor, partial curve] | –
